The list shows a part of the results. The energies were worked out here from pooled read counts, against the library average; single values are noisy.
Target: T1, Pho4 (S. cerevisiae) (UniProt P07270)
T1 sequence: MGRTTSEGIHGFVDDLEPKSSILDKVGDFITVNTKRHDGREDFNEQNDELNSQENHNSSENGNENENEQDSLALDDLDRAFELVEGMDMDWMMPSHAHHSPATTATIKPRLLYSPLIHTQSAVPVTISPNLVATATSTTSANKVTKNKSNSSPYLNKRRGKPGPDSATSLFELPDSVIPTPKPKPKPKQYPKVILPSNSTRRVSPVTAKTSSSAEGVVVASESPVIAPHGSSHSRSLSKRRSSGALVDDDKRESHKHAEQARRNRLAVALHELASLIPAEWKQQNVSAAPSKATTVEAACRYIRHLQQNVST
Test: relative binding free energy (BET-seq); higher = weaker binding
Conditions: reference: library average

Relative binding free energy, 0.48 kcal/mol:
AGTTTCACGTGAGAGT

Relative binding free energy, -0.27 kcal/mol:
ACGTGCACGTGGGGTA

Relative binding free energy, 0.16 kcal/mol:
TTGATCACGTGTTTTA

Relative binding free energy, 0.15 kcal/mol:
GTTCTCACGTGTTGTA, AGGGTCACGTGACGGC, AAATTCACGTGTGAAT, ACGTTCACGTGGGTGC, AGGCACACGTGAAGGG, GTTGTCACGTGTGTAA

Relative binding free energy, 0.26 kcal/mol:
TCATTCACGTGGAGTT, TGGGCCACGTGATGAT, AATATCACGTGCGTAG, TTGGTCACGTGAGGGG

Relative binding free energy, 0.07 kcal/mol:
TGTATCACGTGGGCGG, TATATCACGTGGTACT, AGTCACACGTGTTTTA

Relative binding free energy, 0.03 kcal/mol:
ATGTACACGTGGTGAA, GTGGCCACGTGTATTT, TCGTGCACGTGTTGAA, GGGAGCACGTGTGGAA, TAATACACGTGGATGT, GTTGTCACGTGCGTAT, GCAGTCACGTGGGGGT, GGGTGCACGTGCCTGA

Relative binding free energy, -0.09 kcal/mol:
AGTGCCACGTGTATTT, GTTGGCACGTGGACAG, CATGGCACGTGCGTTG, TCCAGCACGTGTGGTG

Relative binding free energy, 0.09 kcal/mol:
TGAGTCACGTGGGGGC, CTTGTCACGTGCATGG, GATAGCACGTGGTTTT

Relative binding free energy, 0.27 kcal/mol:
TATTTCACGTGGCTAT, GTTATCACGTGTGGAC, AGGAACACGTGTAGCG, TTTCTCACGTGTTTCT, GATGTCACGTGATTTG, TTGATCACGTGGAGGC

Relative binding free energy, 0.3 kcal/mol:
TTGGACACGTGAGAGT, GTTATCACGTGATATT, GGATTCACGTGGGCGC

Relative binding free energy, 0.23 kcal/mol:
AGTTCCACGTGATTAG, AGTTACACGTGGAAGT, TTCTGCACGTGAGAGT, TAGTTCACGTGGCAGG

Relative binding free energy, 0.05 kcal/mol:
GAACGCACGTGTGTGG, GAGTGCACGTGGATTG, TTGGCCACGTGGATGA

Relative binding free energy, -0.32 kcal/mol:
TATAGCACGTGGGTCG

Relative binding free energy, 0.12 kcal/mol:
TGAGTCACGTGTCAGT, GGGATCACGTGTCATG, TTTATCACGTGTTTGA, GGCTGCACGTGTGCTT

Relative binding free energy, 0.41 kcal/mol:
AGTTTCACGTGTCCTT

Relative binding free energy, 0.31 kcal/mol:
TTTTTCACGTGACTGA, TAATTCACGTGATGCT

Relative binding free energy, 0.08 kcal/mol:
AAGGGCACGTGATGTT, GTGTGCACGTGTAAGA, TTCATCACGTGGGCGG, AAAGGCACGTGAGGCG, ATAATCACGTGGTAAG

Relative binding free energy, 0.33 kcal/mol:
CGTTACACGTGAGGGC, GGTTTCACGTGGACTG, GTTTTCACGTGAAAGA

Relative binding free energy, 0.2 kcal/mol:
TGGTCCACGTGAGGTG, GATAGCACGTGAGAGT, TTTTACACGTGTCTGG, GCCTTCACGTGGGGAG

Relative binding free energy, -0.06 kcal/mol:
AGACACACGTGGTTGG, GAGGCCACGTGGCGGG, AAGGTCACGTGTTATG, GGGTGCACGTGTGACA, TAGCGCACGTGTTGGA

Relative binding free energy, 0.19 kcal/mol:
ATAAACACGTGAGGGG

Relative binding free energy, 0.04 kcal/mol:
ATAATCACGTGGGGAG, ATTTCCACGTGGTGTG, TATGCCACGTGTGGTC, TTGGGCACGTGTTACG, TTCGGCACGTGTGTGC, ATGCTCACGTGGGCTG

Relative binding free energy, 0.14 kcal/mol:
ATTTACACGTGCGGGT, GGGAGCACGTGATGAG

Relative binding free energy, 0.28 kcal/mol:
TTGGTCACGTGAACGT, TATGGCACGTGAAGAG, TATTACACGTGACTGG

Relative binding free energy, -0.14 kcal/mol:
CTAGGCACGTGTGTTG, TGGACCACGTGGTGGG, TTTGGCACGTGGCGTG, TGATACACGTGGGTGG

Relative binding free energy, 0.01 kcal/mol:
ACTATCACGTGGGGGG, ATGCACACGTGTGTGG, AGGACCACGTGGCGTG, ATCTGCACGTGTGTAT, TATTGCACGTGTATAG, CTAGGCACGTGATGGC, TATAACACGTGGGGAA, TTGGCCACGTGTAGGG, ATGGACACGTGCGCGG

Relative binding free energy, -0.16 kcal/mol:
GGGGGCACGTGGCTTC, AGCAGCACGTGGGGCG

Relative binding free energy, 0.22 kcal/mol:
AACTGCACGTGAAGGG, TTAGCCACGTGAGGTA, TGATTCACGTGGCATT, TTGGGCACGTGAAGGG, GGGATCACGTGTGTAA

Relative binding free energy, -0.37 kcal/mol:
TAAGGCACGTGGGGAG

Relative binding free energy, 0.17 kcal/mol:
GTTTCCACGTGGTAAG, AGTTACACGTGTCGGG, TAAGTCACGTGTTTCT, TAGGTCACGTGGACGG

Relative binding free energy, -0.19 kcal/mol:
TGCGGCACGTGGGTCA, AATGGCACGTGGTCTA, ACGTCCACGTGGGGTT

Relative binding free energy, -0.2 kcal/mol:
AGCGGCACGTGGTAGT, CGGTGCACGTGCAGTG, TGGGGCACGTGCTGTA, GGGGGCACGTGGGCAG

Relative binding free energy, 0.35 kcal/mol:
GATTCCACGTGAGGTT, TTATGCACGTGAATTC

Relative binding free energy, 0.11 kcal/mol:
TTTTACACGTGGGCCT, GATGACACGTGGATAG, ATAGACACGTGTGATT, AGATACACGTGGATTT, ATGGACACGTGTTGTC, AAAATCACGTGGGGCT, GTAGTCACGTGGGAAG

Relative binding free energy, -0.21 kcal/mol:
GTGAGCACGTGCTAGT

Relative binding free energy, 0.49 kcal/mol:
GGTTTCACGTGAGAAC

Relative binding free energy, 0.34 kcal/mol:
AAGTTCACGTGATATT, TGGGACACGTGAAGGC

Relative binding free energy, -0.04 kcal/mol:
GATACCACGTGGTGGT, GCTGTCACGTGGGTGT, TCGTGCACGTGGATAT, CTAGGCACGTGATAGG

Relative binding free energy, -0.22 kcal/mol:
GCAGGCACGTGGCGGG, TGTAGCACGTGGTCAG, GATAGCACGTGGGGTG

Relative binding free energy, 0.32 kcal/mol:
GTTGTCACGTGAGGCT, AGGGTCACGTGAATTG, GAAAACACGTGAGGGT

Relative binding free energy, 0.06 kcal/mol:
TATTGCACGTGTCTAG, AAAATCACGTGGTGAT, CGGTACACGTGTGTGT, AGACTCACGTGGGGTT, GTGATCACGTGTTAGT, TAGAACACGTGATTGT, CTGGTCACGTGGCGCT, AGGTCCACGTGAGGGA

Relative binding free energy, 0.36 kcal/mol:
GTGTCCACGTGAGGAT

Relative binding free energy, 0.1 kcal/mol:
TAGTACACGTGTTTGA, GGATCCACGTGTGTTA

Relative binding free energy, 0.02 kcal/mol:
TTAGACACGTGTGAGG, ATGGGCACGTGAACGT, GGGATCACGTGTCTGG, GAGTGCACGTGGTAGG, GTGTGCACGTGTGACA, GTTATCACGTGGGGGT

Relative binding free energy, -0.12 kcal/mol:
TAGGGCACGTGTCTAT, ATGTGCACGTGGCGGC

Relative binding free energy, 0.24 kcal/mol:
TTTTTCACGTGGGGAT, CATGTCACGTGATGGG

Relative binding free energy, -0.02 kcal/mol:
TCTTGCACGTGGTTCA, TATGGCACGTGTTGGT, AGTTGCACGTGGAGTT, GGGCACACGTGGTTGT, TTATGCACGTGCTATT

Relative binding free energy, -0.23 kcal/mol:
AGGGGCACGTGCGGGG

Relative binding free energy, -0.25 kcal/mol:
GTAGGCACGTGGCGAG

Relative binding free energy, -0.13 kcal/mol:
TAAAGCACGTGGGAGA, TATGCCACGTGTAGGG

Relative binding free energy, 0 kcal/mol:
GGGGACACGTGGGACG, ATTGTCACGTGTAGAG, TAATGCACGTGTTGGA, AGGGTCACGTGCGGGT

Relative binding free energy, 0.39 kcal/mol:
TGTTCCACGTGAGGGA, TCGATCACGTGTGAGT

Relative binding free energy, 0.4 kcal/mol:
GTTTTCACGTGCAGAG, GTGTGCACGTGAATTG

Relative binding free energy, 0.25 kcal/mol:
CATAACACGTGAGTGG, GAGTACACGTGATAGT, TAGGTCACGTGAAGAT, GTATTCACGTGGGTGA, TTTAGCACGTGAGATG, TATCGCACGTGTGGTC, TGTGTCACGTGATTCG

Relative binding free energy, -0.1 kcal/mol:
GTAAGCACGTGGCTGG, TGAGTCACGTGGGGTC, AAGGGCACGTGTGTGT, AGTGACACGTGCGTAG, CATAGCACGTGGAGGT

Relative binding free energy, -0.05 kcal/mol:
TTAGCCACGTGTTTTA, TACATCACGTGGGGCT

Relative binding free energy, -0.01 kcal/mol:
GATTGCACGTGTTTGT, GAGTACACGTGCTGGG, TATGACACGTGTGCTG, TGGGGCACGTGTCGCT, GTTGTCACGTGGGGGG, TATTGCACGTGTACTT

Relative binding free energy, 0.37 kcal/mol:
GAGTACACGTGAATGG, GTTCGCACGTGAAGCG

Relative binding free energy, 0.18 kcal/mol:
ATATTCACGTGGATAG, TATTTCACGTGGGGCA

Relative binding free energy, -0.17 kcal/mol:
TTACGCACGTGGTATT, CGAGGCACGTGGGGTA

Relative binding free energy, 0.13 kcal/mol:
GTTATCACGTGTTTGA, GATCTCACGTGGGGCG, TTGTTCACGTGGTCTA, AACGTCACGTGTGTGT

Relative binding free energy, -0.03 kcal/mol:
GTAGGCACGTGTGTGC, AGCGGCACGTGTTAGG, GTCGGCACGTGTTGTA, GGTAACACGTGTTTTA

Relative binding free energy, -0.07 kcal/mol:
TGAAGCACGTGTTTGG

Relative binding free energy, -0.11 kcal/mol:
ATTGACACGTGGCGTT, AGGGGCACGTGGAAGG, TCGGCCACGTGGTAGG, TTGCGCACGTGACGGT

Relative binding free energy, -0.24 kcal/mol:
TATGGCACGTGGCATG

Relative binding free energy, -0.18 kcal/mol:
GGAACCACGTGGGGTG

Relative binding free energy, -0.15 kcal/mol:
TTTAGCACGTGCGATG, CGTGACACGTGGATGT, GTATGCACGTGGGGCT

Relative binding free energy, 0.21 kcal/mol:
GGGGTCACGTGTTATC, ATGTTCACGTGGTATG, TGGGTCACGTGTGAGT, GCGTTCACGTGGCTGT, GTTCTCACGTGGTAGG, GGATGCACGTGTATAG

Relative binding free energy, -0.08 kcal/mol:
TGGTGCACGTGTGTGC, TTTGTCACGTGGGGTG, TTTAGCACGTGTTTGT

Source: the BET-seq Pho4 binding data (Le et al. 2018)
